# In PubChem BioAssay (Tox21):
# This list was built around the results that the source calls inconclusive (neither active nor inactive); the mix of calls is not that of the screen. For some of these results: Potencies of inconclusive entries are left out as doubtful fits. Activity calls are given as the source filed them. Unless noted, calls follow the shape of the full dose curve.
# What was measured:
# [1] = target: Peroxisome proliferator-activated receptor delta (Homo sapiens) (UniProt Q03181); test: qHTS assay to identify small molecule agonists of the peroxisome proliferator-activated receptor delta (PPARd) signaling pathway (AID 743212); conditions: HEK293H PPARd-UAS-bla, beta-lactamase FRET ratio, 17 h; activation: at 62.6 µM (top of the series) unless noted; also: potency is read from the fitted curve at half-maximal effect
# Chain of UniProt Q03181 (Q03181 whole entry, looked up): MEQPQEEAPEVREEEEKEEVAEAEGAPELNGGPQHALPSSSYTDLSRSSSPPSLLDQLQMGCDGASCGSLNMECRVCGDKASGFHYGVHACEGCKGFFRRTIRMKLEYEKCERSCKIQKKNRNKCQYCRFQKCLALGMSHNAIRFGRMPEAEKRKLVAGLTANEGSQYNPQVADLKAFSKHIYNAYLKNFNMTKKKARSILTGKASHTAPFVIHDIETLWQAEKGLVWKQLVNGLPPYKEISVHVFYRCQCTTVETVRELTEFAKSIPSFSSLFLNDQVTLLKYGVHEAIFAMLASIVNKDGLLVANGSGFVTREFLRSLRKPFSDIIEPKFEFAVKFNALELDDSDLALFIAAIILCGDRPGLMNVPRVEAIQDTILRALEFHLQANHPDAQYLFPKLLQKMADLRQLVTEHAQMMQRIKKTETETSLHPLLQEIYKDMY
# Procedure, shortened: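 Tox21 library screened in GeneBLAzer PPARd UAS-bla HEK293H cells. After compound treatment at 37 C, a FRET-based beta-lactamase substrate was applied for 2 h and fluorescence recorded.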
# [2] = qHTS assay to identify small molecule antagonists of the peroxisome proliferator-activated receptor delta (PPARd) signaling pathway - cell viability counter screen (AID 743213; active = well fitted curve in the direction sought with a large enough effect in the repeat runs; inconclusive = weak or mixed curves; inactive = no such curve, though single readings can be large; an effect the other way counts as inactive or inconclusive; also: potency is read from the fitted curve at half-maximal effect; nearly all actives have a fitted effect of over 50% in size); conditions: PPARd-bla HEK293H viability, CellTiter-Glo luminescence, 17 h; viability change, negative = cytotoxic: at 62 µM (top of the series) unless noted
# Procedure, shortened: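 CellTiter-Glo was added to PPARd-bla HEK293H wells following 17 h compound treatment in the presence of 300 nM L165041. Luminescence was recorded after 30 min at room temperature.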
# [3] = target: Peroxisome proliferator-activated receptor delta (Homo sapiens) (UniProt Q03181); test: qHTS assay to identify small molecule antagonists of the peroxisome proliferator-activated receptor delta (PPARd) signaling pathway (AID 743215; active = well fitted inhibition curve with a large enough effect in the signal ratio in the repeat runs, not every such curve was filed as active; inconclusive = weak or mixed curves, or effect the other way; inactive = no such curve, though single readings can be large or run the other way; the % refers to the signal ratio;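 also: cells stimulated with agonist L165041 at 300 nM final during compound exposure; potency is read from the fitted curve at half-maximal effect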); conditions: HEK293H PPARd-UAS-bla, beta-lactamase FRET ratio, antagonist, 17 h; ratio activity, negative = inhibition: at 62 µM (top of the series) unless noted
# Procedure, shortened: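 Here, a reporter line (HEK293H, beta-lactamase under a UAS) measures PPARd signaling. Compounds are tested against agonist L165041 at 300 nM final concentration over 17 h at 37 C, with fluorescence read after substrate.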
# [4] = target: Bile acid receptor (Homo sapiens) (UniProt Q96RI1); test: qHTS assay to identify small molecule antagonists of the farnesoid-X-receptor (FXR) signaling pathway (AID 743217; active = well fitted inhibition curve with a large enough effect in the signal ratio in the repeat runs, not every such curve was filed as active; inconclusive = weak or mixed curves, or effect the other way; inactive = no such curve, though single readings can be large or run the other way; the % refers to the signal ratio; also: potency is read from the fitted curve at half-maximal effect); conditions: HEK293T FXR-UAS-bla, beta-lactamase ratio, CDCA-stimulated, 16 h; activity change, negative = inhibition: at 62.6 µM (top of the series) unless noted
# Chain of UniProt Q96RI1 (Q96RI1 whole entry, looked up): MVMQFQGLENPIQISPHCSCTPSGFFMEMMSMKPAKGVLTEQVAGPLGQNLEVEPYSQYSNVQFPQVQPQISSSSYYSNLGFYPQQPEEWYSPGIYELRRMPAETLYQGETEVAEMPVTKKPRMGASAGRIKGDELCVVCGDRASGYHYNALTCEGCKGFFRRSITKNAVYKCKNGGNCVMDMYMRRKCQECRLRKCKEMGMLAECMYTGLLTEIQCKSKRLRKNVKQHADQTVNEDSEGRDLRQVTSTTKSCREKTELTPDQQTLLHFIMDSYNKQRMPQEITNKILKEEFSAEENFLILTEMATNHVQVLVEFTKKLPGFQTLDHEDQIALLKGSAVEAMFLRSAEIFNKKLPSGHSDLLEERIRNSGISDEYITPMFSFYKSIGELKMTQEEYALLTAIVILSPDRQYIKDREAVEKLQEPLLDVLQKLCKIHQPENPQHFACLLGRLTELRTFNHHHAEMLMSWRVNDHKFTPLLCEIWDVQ
# Procedure, shortened: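 Test compounds are pin-transferred onto FXR-bla HEK 293T cells, then chenodeoxycholic acid is added at 50 uM final. After 16 h at 37 °C, LiveBLAzer B/G substrate is applied for 2 h at room temperature and fluorescence read.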
# [5] = qHTS assay to identify small molecule agonists of the farnesoid-X-receptor (FXR) signaling pathway - cell viability counter screen (AID 743218; active = well fitted curve in the direction sought with a large enough effect in the repeat runs; inconclusive = weak or mixed curves; inactive = no such curve, though single readings can be large; an effect the other way counts as inactive or inconclusive; also: potency is read from the fitted curve at half-maximal effect; nearly all actives have a fitted effect of over 45% in size); conditions: FXR-bla HEK293T viability, CellTiter-Glo luminescence, 16 h; viability change, negative = cytotoxic: at 62.6 µM (top of the series) unless noted
# Procedure, shortened: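 Quantitative HTS counter screen measuring ATP-based viability via CellTiter-Glo luminescence in HEK 293T cells carrying a UAS-driven beta-lactamase reporter, after 16 h compound exposure at 37 C.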
# [6] = target: Vitamin D3 receptor (Homo sapiens) (UniProt P11473); test: qHTS assay to identify small molecule agonists of the vitamin D receptor (VDR) signaling pathway (AID 743222); conditions: HEK293T VDR-UAS-bla, beta-lactamase FRET ratio, 16 h; activation: at 63.5 µM (top of the series) unless noted; also: potency is read from the fitted curve at half-maximal effect; as to activation: % is scaled to controls: 0 for no effect and ±100 for the full control effect
# Chain of UniProt P11473 (P11473 whole entry, looked up): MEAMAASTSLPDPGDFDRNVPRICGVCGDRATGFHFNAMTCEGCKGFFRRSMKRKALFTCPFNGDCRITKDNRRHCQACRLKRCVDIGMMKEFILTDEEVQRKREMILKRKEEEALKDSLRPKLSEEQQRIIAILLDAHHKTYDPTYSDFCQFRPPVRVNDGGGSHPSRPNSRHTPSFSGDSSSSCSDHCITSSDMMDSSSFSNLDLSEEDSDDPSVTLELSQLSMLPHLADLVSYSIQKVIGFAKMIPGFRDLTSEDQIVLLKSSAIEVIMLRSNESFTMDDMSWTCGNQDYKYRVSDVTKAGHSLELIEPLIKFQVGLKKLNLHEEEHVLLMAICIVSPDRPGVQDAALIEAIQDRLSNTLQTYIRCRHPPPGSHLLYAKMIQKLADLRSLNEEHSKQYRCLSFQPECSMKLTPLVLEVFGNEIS
# Procedure, shortened: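 Tox21 cell reporter format: VDR-bla line, 16 h compound exposure in 5% CO2 at 37C, then fluorescence intensity after 2 h with LiveBLAzer B/G FRET substrate.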
# [7] = target: Vitamin D3 receptor (Homo sapiens) (UniProt P11473); test: qHTS assay to identify small molecule antagonists of the vitamin D receptor (VDR) signaling pathway (AID 743223; active = well fitted inhibition curve with a large enough effect in the signal ratio in the repeat runs, not every such curve was filed as active; inconclusive = weak or mixed curves, or effect the other way; inactive = no such curve, though single readings can be large or run the other way; the % refers to the signal ratio; also: % is scaled to controls: 0 for no effect and ±100 for the full control effect); conditions: VDR-UAS-bla HEK293T, beta-lactamase FRET ratio, 16 h; activity change, negative = inhibition: at 61 µM (top of the series) unless noted
# Procedure, shortened: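 Agonist 1alpha,25-dihydroxyvitamin D3 (3 nM in well) was added with each compound to VDR-bla cells preincubated 4 h. Cells stood 16 h at 37C, then FRET substrate 2 h at room temperature; fluorescence intensity recorded.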
# [8] = qHTS assay to identify small molecule agonists of the vitamin D receptor (VDR) signaling pathway - cell viability counter screen (AID 743224; active = well fitted curve in the direction sought with a large enough effect in the repeat runs; inconclusive = weak or mixed curves; inactive = no such curve, though single readings can be large; an effect the other way counts as inactive or inconclusive; also: potency is read from the fitted curve at half-maximal effect; nearly all actives have a fitted effect of over 50% in size); conditions: VDR-bla HEK293T viability, CellTiter-Glo luminescence, 16 h; activity change, negative = cytotoxicity: at 62.6 µM (top of the series)
# Procedure, shortened: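 CellTiter-Glo viability readout on VDR-bla cells, measured after 16 h of compound treatment at 37C in the same wells.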
# [9] = qHTS assay to identify small molecule antagonists of the vitamin D receptor (VDR) signaling pathway - cell viability counter screen (AID 743225; active = well fitted curve in the direction sought with a large enough effect in the repeat runs; inconclusive = weak or mixed curves; inactive = no such curve, though single readings can be large; an effect the other way counts as inactive or inconclusive; also: potency is read from the fitted curve at half-maximal effect; nearly all actives have a fitted effect of over 50% in size); conditions: VDR-bla HEK293T viability, CellTiter-Glo luminescence, 16 h; viability change, negative = cytotoxic: at 61 µM (top of the series) unless noted
# Procedure, shortened: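 Luminescent cell viability (CellTiter-Glo) in VDR-bla HEK 293T cells after 16 h compound exposure at 37C in the presence of 3 nM final 1-alpha,25-dihydroxy vitamin D3.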
# [10] = qHTS assay to identify small molecule agonists of the endoplasmic reticulum stress response signaling pathway - cell viability counter screen (AID 1159517); conditions: ESRE-bla HeLa viability, CellTiter-Glo luminescence, 5 h; series mostly up to 61 µM; also: nearly all actives have a fitted effect of over 50% in size; also: potency is read from the fitted curve at half-maximal effect;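 as to activity change, negative = cytotoxicity: HeLa cells carrying an ER stress response element beta-lactamase reporter; % is scaled to controls: 0 for no effect and ±100 for the full control effect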
# Procedure, shortened: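 In parallel with the ESRE reporter read, cytotoxicity was scored by CellTiter-Glo luminescence (30 min, room temperature) on HeLa ESRE-bla cells dosed for 5 hr.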
# [11] = qHTS assay to identify small molecule antagonists of the retinoid-related orphan receptor gamma (ROR-gamma) signaling pathway - cell viability counter screen (AID 1159520; active = well fitted curve in the direction sought with a large enough effect in the repeat runs; inconclusive = weak or mixed curves; inactive = no such curve, though single readings can be large; an effect the other way counts as inactive or inconclusive); conditions: Tet-on RORgamma CHO cells viability, ATP luminescence, 16 h; series mostly up to 92.4 µM
# Procedure, shortened: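 Tet-on ROR gamma CHO cells were given compounds for 2 hr, then doxycycline hyclate at 1 uM final, and incubated 16 hr at 37 C. Viability was measured as ATP content by CellTiter-Glo luminescence.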
# [12] = qHTS assay to identify small molecule agonists of the AP-1 signaling pathway - cell viability counter screen (AID 1159525); conditions: ME-180 AP-1-bla cells viability, ATP luminescence, 5 h; series mostly up to 76.8 µM; also: potency is read from the fitted curve at half-maximal effect; nearly all actives have a fitted effect of over 55% in size
# Procedure, shortened: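 Same-well cytotoxicity counter screen of the Tox21 10K library in ME-180 cells. The readout is ATP-dependent luminescence after 5 h compound treatment. Data are normalised to DMSO and tetra n-octyl ammonium bromide controls.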
# [13] = qHTS assay to identify small molecule agonists of the AP-1 signaling pathway (AID 1159526); conditions: ME-180 (cervical carcinoma) AP-1-bla reporter, beta-lactamase FRET ratio, 5 h; activation: at 76.8 µM (top of the series) unless noted; also: potency is read from the fitted curve at half-maximal effect
# [14] = target: Retinoic acid receptor RXR-alpha (Homo sapiens) (UniProt P19793); test: qHTS assay to identify small molecule agonists of the RXR signaling pathway (AID 1159527); conditions: HEK293T RXRa-UAS-bla, beta-lactamase ratio, 16 h; activation: at 76.8 µM (top of the series) unless noted; also: potency is read from the fitted curve at half-maximal effect; nearly all actives have a fitted effect of over 35% in size
# Chain of UniProt P19793 (P19793 whole entry, looked up): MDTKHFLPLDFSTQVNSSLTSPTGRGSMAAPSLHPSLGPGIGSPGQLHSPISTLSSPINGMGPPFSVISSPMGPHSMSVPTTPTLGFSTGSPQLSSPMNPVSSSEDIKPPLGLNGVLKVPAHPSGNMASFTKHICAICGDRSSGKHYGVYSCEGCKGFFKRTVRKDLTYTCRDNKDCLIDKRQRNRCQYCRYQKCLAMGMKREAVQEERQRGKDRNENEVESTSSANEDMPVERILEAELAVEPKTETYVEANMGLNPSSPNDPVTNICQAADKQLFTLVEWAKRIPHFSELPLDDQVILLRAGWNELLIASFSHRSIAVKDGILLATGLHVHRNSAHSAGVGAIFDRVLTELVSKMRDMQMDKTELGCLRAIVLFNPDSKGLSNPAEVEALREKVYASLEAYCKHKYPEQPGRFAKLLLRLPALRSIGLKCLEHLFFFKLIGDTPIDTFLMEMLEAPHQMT
# Procedure, shortened: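 Beta-lactamase reporter assay, agonist format. Engineered HEK 293T line, charcoal-stripped FBS at 2%, overnight (16 hr) exposure, fluorescence at 460 and 530 nm after 405 nm excitation.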
# [15] = qHTS assay to identify small molecule agonists of the RXR signaling pathway - cell viability counter screen (AID 1159529; active = well fitted curve in the direction sought with a large enough effect in the repeat runs; inconclusive = weak or mixed curves; inactive = no such curve, though single readings can be large; an effect the other way counts as inactive or inconclusive); conditions: RXR-alpha-bla HEK293T viability, CellTiter-Glo, 16 h; series mostly up to 76.8 µM
# Procedure, shortened: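 Same-well viability check after the LiveBLAzer FRET read: CellTiter-Glo added, luminescence measured after 30 min at room temperature. Reporter HEK 293T cells had been treated with compounds for 16 hr following a 5 hr preincubation.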
# [16] = qHTS assay to identify small molecule antagonists of the retinoid acid receptor (RAR) signaling pathway - cell viability counter screen (AID 1159551; active = well fitted curve in the direction sought with a large enough effect in the repeat runs; inconclusive = weak or mixed curves; inactive = no such curve, though single readings can be large; an effect the other way counts as inactive or inconclusive; also: potency is read from the fitted curve at half-maximal effect; nearly all actives have a fitted effect of over 35% in size); conditions: C3RL4 cells viability, ATP luminescence (CellTiter-Glo), 6 h; series mostly up to 92.4 µM
# Procedure, shortened: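 In this counter screen, the RARE-luciferase line C3RL4 was exposed for 6 h at 37 C and 5% CO2 to compounds with retinol at 1 uM final. Cellular ATP, read by luminescence, served as the viability measure.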
# [17] = target: Bile acid receptor (Homo sapiens) (UniProt Q96RI1); test: qHTS assay to identify small molecule agonists of the farnesoid-X-receptor (FXR) signaling pathway (AID 743220; active = well fitted activation curve with a large enough effect in the signal ratio in the repeat runs, not every such curve was filed as active; inconclusive = weak or mixed curves, or effect the other way; the % refers to the signal ratio; also: % is scaled to controls: 0 for no effect and ±100 for the full control effect); conditions: HEK293T FXR-UAS-bla, beta-lactamase FRET ratio, 16 h; activation: at 62.6 µM (top of the series) unless noted
# Procedure, shortened: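 FXR-UAS-bla HEK 293T cells carrying a UAS-driven beta-lactamase reporter were plated for 5 h at 37C/5% CO2, then exposed to DMSO-dissolved Tox21 10K compounds for 16 h at 37C. A LiveBLAzer B/G FRET substrate was loaded for 2 h at room temperature before fluorescence reading.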
# [18] = qHTS assay to identify small molecule antagonists of the farnesoid-X-receptor (FXR) signaling pathway - cell viability counter screen (AID 743221; active = well fitted cell-killing curve with a large enough effect in the repeat runs, not every such curve was filed as active; inconclusive = weak or mixed curves, or effect the other way; inactive = no such curve, though single readings can be large or run the other way); conditions: FXR-bla HEK293T viability, CellTiter-Glo luminescence, 16 h; activity change, negative = cytotoxicity: at 62.6 µM (top of the series)
# Procedure, shortened: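 In GeneBLAzer FXR-UAS-bla HEK 293T cells stimulated with 50 uM chenodeoxycholic acid (final), compounds acted for 16 h at 37 C. Viability was assessed afterwards by CellTiter-Glo luminescence.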
# Tags tell the direction and shape of the fitted curve or compound fluorescence and quenching.
smiles,measurement,setting,value
CC(C)(C)c1csc(-c2cc3cc(OCc4ccccc4CC(=O)O)ccc3o2)n1,Potency,[1],"inconclusive [rising, full curve, poor fit]"
same,Potency,[2],active: 30.9 µM
same,Potency,[3],"inconclusive [inhibitor, single point]"
same,Potency,[4],inconclusive
same,Potency,[5],"inconclusive [cytotoxic, single point]"
same,Potency,[6],inconclusive
same,"activity change, negative = inhibition",[7],inconclusive: -44.9%
same,Potency,[8],"inconclusive [cytotoxic, full curve]"
same,Potency,[9],"inconclusive [cytotoxic, full curve]"
same,Potency,[10],"inconclusive [cytotoxic, single point]"
same,Potency,[11],inconclusive [cytotoxic]
same,Potency,[12],inconclusive [cytotoxic]
same,Potency,[13],"inconclusive [cytotoxic, partial curve, poor fit]"
same,Potency,[14],"inconclusive [rising, full curve]"
same,Potency,[15],"inconclusive [cytotoxic, single point]"
same,Potency,[16],inconclusive [cytotoxic]
CC(=O)/C=C/c1ccco1,Potency,[10],inactive
Cc1ccc(Br)cc1,Potency,[10],inactive
CC(C)CCCC(C)(C)O,Potency,[10],inactive
COC(=O)C1=C(C)NC(C)=C(C(=O)OC(C)(C)CN(C)CCC(c2ccccc2)c2ccccc2)C1c1cccc([N+](=O)[O-])c1 (stereo not drawn),Potency,[4],"inconclusive [rising, full curve]"
same,activation,[17],inconclusive: 3.91%
same,Potency,[18],"inconclusive [falling, single point]"
same,Potency,[6],inactive
same,Potency,[7],inactive
same,Potency,[8],"inconclusive [cytotoxic, partial curve, poor fit]"
same,Potency,[10],"inconclusive [cytotoxic, full curve, poor fit]"
same,Potency,[11],"inconclusive [cytotoxic, partial curve]"
same,Potency,[14],"inconclusive [inhibitor, full curve]"
